Test results from publication PMC8599806.
Where a chain is given by its changes, count along the chain named. No constants are given. Whether binding was seen depends on the method and setting. Binding seen in cells or lysates may run through a third protein. Some results given as binding are weak or reduced against the parent protein; the word gives no strength. For some assays here: Sequences can lack the tags named with a protein.

Protein sequences, listed by entry. Tags and fused reporters are not part of them.
UniProt Q06609: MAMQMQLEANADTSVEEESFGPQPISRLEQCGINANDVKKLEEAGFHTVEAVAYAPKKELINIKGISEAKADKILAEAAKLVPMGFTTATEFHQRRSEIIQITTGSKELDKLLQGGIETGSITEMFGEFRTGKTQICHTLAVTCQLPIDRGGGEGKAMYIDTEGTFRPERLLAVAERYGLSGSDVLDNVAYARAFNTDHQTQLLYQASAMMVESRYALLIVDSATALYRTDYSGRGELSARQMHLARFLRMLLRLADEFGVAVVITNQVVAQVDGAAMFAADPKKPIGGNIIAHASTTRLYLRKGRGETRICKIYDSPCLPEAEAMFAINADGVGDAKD
UniProt Q14676: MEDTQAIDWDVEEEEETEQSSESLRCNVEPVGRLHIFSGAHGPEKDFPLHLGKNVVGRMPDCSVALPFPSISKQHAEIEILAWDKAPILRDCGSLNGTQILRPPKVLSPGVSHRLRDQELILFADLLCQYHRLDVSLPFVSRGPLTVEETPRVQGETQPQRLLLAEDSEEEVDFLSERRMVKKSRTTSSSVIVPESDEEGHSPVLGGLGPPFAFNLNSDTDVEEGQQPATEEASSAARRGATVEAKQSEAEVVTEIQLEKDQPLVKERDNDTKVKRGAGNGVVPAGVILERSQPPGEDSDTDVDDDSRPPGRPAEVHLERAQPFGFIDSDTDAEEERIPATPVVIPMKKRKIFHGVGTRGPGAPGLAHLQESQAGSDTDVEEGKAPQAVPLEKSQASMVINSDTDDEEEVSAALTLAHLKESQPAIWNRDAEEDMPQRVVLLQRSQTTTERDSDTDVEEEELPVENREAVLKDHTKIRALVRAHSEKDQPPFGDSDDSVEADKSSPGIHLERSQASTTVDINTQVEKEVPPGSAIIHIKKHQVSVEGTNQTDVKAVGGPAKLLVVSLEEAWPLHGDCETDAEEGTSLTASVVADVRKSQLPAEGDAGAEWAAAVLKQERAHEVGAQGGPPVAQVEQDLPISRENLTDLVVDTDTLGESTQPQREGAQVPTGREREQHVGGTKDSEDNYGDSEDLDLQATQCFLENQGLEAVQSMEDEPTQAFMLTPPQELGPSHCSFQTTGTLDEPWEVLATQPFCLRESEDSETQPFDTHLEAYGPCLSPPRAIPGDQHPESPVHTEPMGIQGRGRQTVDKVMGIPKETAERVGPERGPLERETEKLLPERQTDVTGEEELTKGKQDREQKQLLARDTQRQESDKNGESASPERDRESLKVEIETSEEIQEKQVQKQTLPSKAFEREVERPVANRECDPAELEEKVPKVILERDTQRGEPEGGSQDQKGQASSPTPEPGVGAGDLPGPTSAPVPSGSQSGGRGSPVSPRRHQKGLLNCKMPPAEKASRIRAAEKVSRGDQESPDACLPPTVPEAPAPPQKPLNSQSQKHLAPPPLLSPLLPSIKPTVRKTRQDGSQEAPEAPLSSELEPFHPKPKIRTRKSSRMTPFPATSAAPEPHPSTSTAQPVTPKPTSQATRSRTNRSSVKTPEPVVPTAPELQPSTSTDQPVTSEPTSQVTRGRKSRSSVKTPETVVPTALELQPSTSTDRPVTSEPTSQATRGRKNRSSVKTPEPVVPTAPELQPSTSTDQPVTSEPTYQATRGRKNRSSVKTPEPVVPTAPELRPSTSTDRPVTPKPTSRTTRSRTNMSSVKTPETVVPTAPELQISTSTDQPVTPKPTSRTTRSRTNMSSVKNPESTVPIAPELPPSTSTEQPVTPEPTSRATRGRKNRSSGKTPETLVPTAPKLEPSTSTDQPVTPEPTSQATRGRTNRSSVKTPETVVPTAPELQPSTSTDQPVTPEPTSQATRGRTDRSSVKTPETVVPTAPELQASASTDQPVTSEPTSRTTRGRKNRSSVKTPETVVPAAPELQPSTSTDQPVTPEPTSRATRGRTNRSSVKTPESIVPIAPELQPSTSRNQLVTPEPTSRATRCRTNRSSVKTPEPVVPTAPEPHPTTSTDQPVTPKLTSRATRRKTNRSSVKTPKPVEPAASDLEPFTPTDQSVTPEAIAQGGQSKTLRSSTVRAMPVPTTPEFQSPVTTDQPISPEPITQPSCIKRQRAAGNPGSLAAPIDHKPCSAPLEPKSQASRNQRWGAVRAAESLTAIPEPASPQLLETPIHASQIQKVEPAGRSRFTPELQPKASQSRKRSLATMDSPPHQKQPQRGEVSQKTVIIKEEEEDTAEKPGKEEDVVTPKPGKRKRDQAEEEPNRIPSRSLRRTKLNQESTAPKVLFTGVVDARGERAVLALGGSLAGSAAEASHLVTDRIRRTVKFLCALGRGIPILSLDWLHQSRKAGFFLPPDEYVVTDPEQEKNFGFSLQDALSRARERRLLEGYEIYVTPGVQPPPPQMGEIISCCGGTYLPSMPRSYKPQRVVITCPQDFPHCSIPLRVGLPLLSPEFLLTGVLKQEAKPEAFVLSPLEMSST
UniProt O60934: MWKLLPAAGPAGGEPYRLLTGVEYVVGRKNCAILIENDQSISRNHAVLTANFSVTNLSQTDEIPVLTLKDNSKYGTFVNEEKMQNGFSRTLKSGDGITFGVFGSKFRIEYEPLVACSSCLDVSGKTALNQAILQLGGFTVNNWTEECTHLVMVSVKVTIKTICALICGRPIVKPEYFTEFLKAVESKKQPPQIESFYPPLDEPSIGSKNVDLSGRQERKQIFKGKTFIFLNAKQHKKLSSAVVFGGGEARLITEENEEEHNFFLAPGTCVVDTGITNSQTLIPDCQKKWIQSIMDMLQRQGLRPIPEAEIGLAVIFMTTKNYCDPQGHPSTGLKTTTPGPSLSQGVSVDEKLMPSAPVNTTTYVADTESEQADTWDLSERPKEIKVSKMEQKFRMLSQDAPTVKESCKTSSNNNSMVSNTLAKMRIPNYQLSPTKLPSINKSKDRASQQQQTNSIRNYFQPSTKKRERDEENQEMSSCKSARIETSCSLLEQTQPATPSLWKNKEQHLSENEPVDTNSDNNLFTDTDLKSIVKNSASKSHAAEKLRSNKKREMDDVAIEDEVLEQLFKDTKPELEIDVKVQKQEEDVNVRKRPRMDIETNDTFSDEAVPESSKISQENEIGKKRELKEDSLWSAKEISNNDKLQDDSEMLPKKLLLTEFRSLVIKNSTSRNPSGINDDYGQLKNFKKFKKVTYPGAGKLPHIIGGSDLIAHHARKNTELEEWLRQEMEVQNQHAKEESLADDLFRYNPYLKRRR
UniProt Q92878: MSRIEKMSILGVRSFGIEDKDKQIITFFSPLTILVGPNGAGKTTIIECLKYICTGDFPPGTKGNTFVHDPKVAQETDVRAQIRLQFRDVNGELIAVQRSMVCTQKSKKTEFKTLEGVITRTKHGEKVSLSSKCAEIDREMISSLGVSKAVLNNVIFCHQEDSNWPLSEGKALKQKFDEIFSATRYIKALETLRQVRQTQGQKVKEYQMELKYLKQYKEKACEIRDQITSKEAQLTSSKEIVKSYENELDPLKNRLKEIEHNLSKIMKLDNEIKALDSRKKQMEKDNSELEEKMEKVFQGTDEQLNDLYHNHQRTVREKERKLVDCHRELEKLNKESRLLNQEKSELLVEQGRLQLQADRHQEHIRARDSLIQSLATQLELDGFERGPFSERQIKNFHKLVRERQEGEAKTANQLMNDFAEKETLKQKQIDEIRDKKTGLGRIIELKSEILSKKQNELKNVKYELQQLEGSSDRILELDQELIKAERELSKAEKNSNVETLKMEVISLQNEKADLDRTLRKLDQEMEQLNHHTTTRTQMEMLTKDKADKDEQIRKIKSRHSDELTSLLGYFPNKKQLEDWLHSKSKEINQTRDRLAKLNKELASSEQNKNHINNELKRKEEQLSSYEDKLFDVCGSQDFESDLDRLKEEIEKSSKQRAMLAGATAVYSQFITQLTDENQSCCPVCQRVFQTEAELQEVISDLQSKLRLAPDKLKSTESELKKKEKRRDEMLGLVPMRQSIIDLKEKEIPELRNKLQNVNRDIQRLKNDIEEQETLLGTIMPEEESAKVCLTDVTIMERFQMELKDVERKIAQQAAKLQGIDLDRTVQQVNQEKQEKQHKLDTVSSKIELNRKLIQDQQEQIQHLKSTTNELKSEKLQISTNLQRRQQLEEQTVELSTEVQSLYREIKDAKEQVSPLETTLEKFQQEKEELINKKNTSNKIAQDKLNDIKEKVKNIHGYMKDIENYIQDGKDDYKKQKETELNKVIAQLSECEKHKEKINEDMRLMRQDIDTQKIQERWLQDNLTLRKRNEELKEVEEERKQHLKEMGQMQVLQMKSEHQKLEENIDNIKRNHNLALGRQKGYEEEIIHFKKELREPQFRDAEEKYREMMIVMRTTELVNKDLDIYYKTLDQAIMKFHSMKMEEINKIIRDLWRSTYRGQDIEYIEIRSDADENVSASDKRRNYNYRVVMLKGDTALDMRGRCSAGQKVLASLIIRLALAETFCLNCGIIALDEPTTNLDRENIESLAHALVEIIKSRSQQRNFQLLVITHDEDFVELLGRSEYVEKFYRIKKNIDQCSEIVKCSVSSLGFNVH
UniProt P46063: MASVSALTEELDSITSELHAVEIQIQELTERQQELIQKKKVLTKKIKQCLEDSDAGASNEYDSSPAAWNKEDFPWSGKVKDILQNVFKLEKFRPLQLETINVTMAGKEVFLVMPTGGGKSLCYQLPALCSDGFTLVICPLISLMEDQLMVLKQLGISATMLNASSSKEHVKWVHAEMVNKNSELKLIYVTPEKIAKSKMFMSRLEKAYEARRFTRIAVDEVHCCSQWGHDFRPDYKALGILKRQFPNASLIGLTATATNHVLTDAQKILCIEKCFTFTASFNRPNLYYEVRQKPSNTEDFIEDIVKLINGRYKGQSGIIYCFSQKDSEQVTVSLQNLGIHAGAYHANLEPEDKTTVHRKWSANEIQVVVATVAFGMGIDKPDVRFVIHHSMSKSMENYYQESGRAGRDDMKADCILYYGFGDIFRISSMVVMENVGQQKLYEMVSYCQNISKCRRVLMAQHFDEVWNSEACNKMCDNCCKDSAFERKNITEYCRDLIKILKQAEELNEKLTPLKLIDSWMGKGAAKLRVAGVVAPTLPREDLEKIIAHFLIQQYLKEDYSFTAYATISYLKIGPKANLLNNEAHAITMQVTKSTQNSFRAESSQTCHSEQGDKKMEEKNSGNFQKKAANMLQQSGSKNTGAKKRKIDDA

Legend:
[1] = target: T1, ID3 (form not told: Supplementary Figures S2D and S5L) (human) (UniProt Q02535); test: co-IP; additional co-immunoprecipitation of other DNA repair proteins (Supplementary Figure S2D); bait and form of ID3 not told
T1 sequence: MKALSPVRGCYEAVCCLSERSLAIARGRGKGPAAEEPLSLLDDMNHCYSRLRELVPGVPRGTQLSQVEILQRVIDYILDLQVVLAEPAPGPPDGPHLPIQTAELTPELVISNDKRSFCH

[2] = target: T2, GFP-Flag-tagged ID3 (inhibitor of DNA-binding 3), wild type (human) (UniProt Q02535); test: co-IP; IP of Flag-tagged ID3 (wild type, S65A, S65E) with anti-Flag magnetic beads from 1.5-2 mg nuclear lysate, overnight at 4°C; Western blot; untreated and after irradiation with 10 Gy (15 or 60 min)
T2 sequence: T1 sequence

[3] = target: T3, endogenous ID3 (human (endogenous in human cell lines; line not named)) (UniProt Q02535); test: co-IP; IP of endogenous ID3 with agarose beads conjugated with mouse anti-ID3, Western blot; before and after irradiation; also after knockdown of MDC1 prior to irradiation (no influence); DMSO or 10 uM ATM inhibitor KU55933 prior to irradiation reduced the co-IP (Figure 1H; legend does not tell which ID3)
T3 sequence: T1 sequence

[4] = target: T4, phospho-mimic ID3 (S65E), Flag-tagged (human) (UniProt Q02535); test: co-IP; IP of Flag-tagged ID3 (wild type, S65A, S65E) with anti-Flag magnetic beads from 1.5-2 mg nuclear lysate, overnight at 4°C; Western blot; untreated and after irradiation with 10 Gy (15 or 60 min)
T4 sequence: T1 sequence with S65E

[5] = target: T5, phospho-dead ID3 (S65A), Flag-tagged (human) (UniProt Q02535); test: as above
T5 sequence: T1 sequence with S65A

Row | Substance | binding [1] | binding [2] | binding [3] | binding [4] | binding [5]
1 | RAD51 (from UniProt Q06609 1-339) | no binding | – | – | – | –
2 | MDC1 (from UniProt Q14676 1-2089) | – | binds | – | – | –
3 | NBS1 (from UniProt O60934 1-754) | – | binds | binds | binds | no binding
4 | RAD50 (from UniProt Q92878 1-1312) | – | binds | binds | binds | no binding
5 | RECQL helicase (from UniProt P46063 1-649) | – | binds | binds | binds | no binding
